To fix the notation:
B1: PRO023 (IL-10/DSG1 ANDbody: native IL-10 fused to the C-termini of the PRO003 heavy chains) (other)
heavy: EVQLVESGGGLVQPGRSLRLSCAASGFTFDDYAMHWVRQAPGKGLEWVSGISWNSGSIDYADSVKGRFTISRDNAKNSLYLQMNSLRVEDTALYYCAKDGSRVFGVGGGFDFWGQGTMVTVSSASTKGPSVFPLAPSSKSTSGGTAALGCLVKDYFPEPVTVSWNSGALTSGVHTFPAVLQSSGLYSLSSVVTVPSSSLGTQTYICNVNHKPSNTKVDKKV[human IgG1 Fc with changes not shown]GGGGSGGGGSGGGGSSPGQGTQSENSCTHFPGNLPNMLRDLRDAFSRVKTFFQMKDQLDNLLLKESLLEDFKGYLGCQALSEMIQFYLEEVMPQAENQDPDIKAHVNSLGENLKTLRLRLRRCHRFLPCENKSKAVEQVKNAFNKLQEKGIYKAMSEFDIFINYIEAYMTMKIRN
light: ELQMTQSPSSLSASVGDRVTITCQASQDIGNYLNWYQQKPGKAPKLLIYDASYLETGVPSRFSGSGSGTDFTFTISSLQPEDIATYYCQQYDNLPFTFGPGTKVDIKRTVAAPSVFIFPPSDEQLKSGTASVVCLLNNFYPREAKVQWKVDNALQSGNSQESVTEQDSKDSTYSLSSTLTLSKADYEKHKVYACEVTHQGLSSPVTKSFNRGEC
B2: PRO025 (IL-10/DSG1 ANDbody: IL-10 dimer fused to each C-terminus of the PRO003 heavy chains) (other)
heavy: EVQLVESGGGLVQPGRSLRLSCAASGFTFDDYAMHWVRQAPGKGLEWVSGISWNSGSIDYADSVKGRFTISRDNAKNSLYLQMNSLRVEDTALYYCAKDGSRVFGVGGGFDFWGQGTMVTVSSASTKGPSVFPLAPSSKSTSGGTAALGCLVKDYFPEPVTVSWNSGALTSGVHTFPAVLQSSGLYSLSSVVTVPSSSLGTQTYICNVNHKPSNTKVDKKV[human IgG1 Fc with changes not shown]GGGGSGGGGSGGGGSSPGQGTQSENSCTHFPGNLPNMLRDLRDAFSRVKTFFQMKDQLDNLLLKESLLEDFKGYLGCQALSEMIQFYLEEVMPQAENQDPDIKAHVNSLGENLKTLRLRLRRCHRFLPCENKSKAVEQVKNAFNKLQEKGIYKAMSEFDIFINYIEAYMTMKIRNGGGSGGGSPGQGTQSENSCTHFPGNLPNMLRDLRDAFSRVKTFFQMKDQLDNLLLKESLLEDFKGYLGCQALSEMIQFYLEEVMPQAENQDPDIKAHVNSLGENLKTLRLRLRRCHRFLPCENKSKAVEQVKNAFNKLQEKGIYKAMSEFDIFINYIEAYMTMKIRN
light: B1 light
B3: PRO024 (IL-10/DSG1 ANDbody: monomeric IL-10 fused to the C-termini of the PRO003 heavy chains) (other)
heavy: EVQLVESGGGLVQPGRSLRLSCAASGFTFDDYAMHWVRQAPGKGLEWVSGISWNSGSIDYADSVKGRFTISRDNAKNSLYLQMNSLRVEDTALYYCAKDGSRVFGVGGGFDFWGQGTMVTVSSASTKGPSVFPLAPSSKSTSGGTAALGCLVKDYFPEPVTVSWNSGALTSGVHTFPAVLQSSGLYSLSSVVTVPSSSLGTQTYICNVNHKPSNTKVDKKV[human IgG1 Fc with changes not shown]GGGGSGGGGSGGGGSSPGQGTQSENSCTHFPGNLPNMLRDLRDAFSRVKTFFQMKDQLDNLLLKESLLEDFKGYLGCQALSEMIQFYLEEVMPQAENQDPDIKAHVNSLGENLKTLRLRLRRCHRFLPCENGGGSGGKSKAVEQVKNAFNKLQEKGIYKAMSEFDIFINYIEAYMTMKIRN
light: B1 light

The results in this text go back to patent US20230203158A1 (FLAGSHIP PIONEERING INNOVATIONS VII, published 2023).

In this assay the target is IL-10 receptor of HEK-BLUE IL-10 cells (the cells express all the components of the IL-10 signaling pathway). The experiment in a line: cell-based or functional assay.
For B1, the “EC50 (pM), HEK-BLUE IL-10 signaling assay (SEAP)” value stood at 54 pM.

For the molecule B2, the “EC50 (pM), HEK-BLUE IL-10 signaling assay (SEAP)” value came out at 46 pM. With B3 the figure was 293 pM.
